Out of some 50,000 compounds screened, about 800 (1.6%) showed an effect of 50% or more. Some of the results follow.
Each compound was assayed against Bcl-2-like protein 10 (Homo sapiens) (UniProt Q9HD36) (assay: Phenotype converters, Bcl-B/TR3 peptide binding displacement, primary biochemical FP (AID 1240;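 note: 0% = Bcl-B with tracer peptide and DMSO and 100% = tracer peptide lacking Bcl-B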)). Settings: GST-Bcl-B / FITC-TR3 peptide fluorescence polarization; stronger effect = higher value; compound at 3.75 mg/L.
Sequence of UniProt Q9HD36 (Q9HD36 whole entry, looked up): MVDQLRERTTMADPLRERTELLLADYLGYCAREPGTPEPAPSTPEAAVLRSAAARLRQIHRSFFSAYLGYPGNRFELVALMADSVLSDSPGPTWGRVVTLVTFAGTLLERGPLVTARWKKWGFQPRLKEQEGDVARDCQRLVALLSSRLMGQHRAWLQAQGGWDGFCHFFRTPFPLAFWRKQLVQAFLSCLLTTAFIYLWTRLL

Compound | displacement
Cc1ccc2nc(NC(=O)c3cccc(Br)c3)sc2c1 | 4.6%
CCC(=O)Nc1ccc(N2CCOCC2)cc1 | -3.6%
O=c1oc2cc(OCCO)ccc2c2c1CCC2 | -2.8%
CN1C(=O)NC(=O)/C(=C/c2ccc(OCC(=O)O)cc2)C1=O | -2.8%
O=C(N=Nc1c(O)n(CN2CCOCC2)c2ccc(Br)cc12)c1cccnc1 | 2.1%
CC12c3ccccc3C(c3ccccc31)C1C(=O)NNC(=O)C12 (stereo unspecified) | 4.3%
O=C(Nc1ccc(NC(=O)c2cccc(F)c2)cc1)c1ccc(Br)cc1 | -8.3%
O=C(Nc1cc(C(F)(F)F)cc(C(F)(F)F)c1)c1cccc([N+](=O)[O-])c1 | -6.9%
COc1cccc(NC(=O)CCc2ccccc2)c1 | -12.6%
CC1=C(C(=O)OCC(Cl)(Cl)Cl)C(c2ccc(Cl)cc2)NC(=O)N1 (stereo unspecified) | 2.3%
c1ccc(C2=Nc3cccc4cccc(c34)N2)cc1 | 15.9%
COc1cccc(C(=O)/C=C/c2ccccc2OC)c1 | -7%
O=C(CN(c1ccccc1)S(=O)(=O)c1ccccc1)NCCSc1ccccn1 | -2.9%
Cc1c(NC(=O)c2nn3c(C(F)(F)F)c4c(nc3c2Cl)-c2ccccc2CC4)c(=O)n(-c2ccccc2)n1C | 11.8%
COc1cccc(C2Sc3ccccc3NC3=C2C(=O)c2ccccc23)c1 (stereo unspecified) | 10.5%
CC(C(=O)N1c2ccccc2-c2c(ssc2=S)C1(C)C)N1C(=O)c2ccccc2C1=O (stereo unspecified) | 6.3%
Cc1ccc(C(C)C)c(OCCNC(=O)c2cccc3ccccc23)c1 | -2.9%
CC(=O)c1ccc(N2C(=O)c3ccc4c5c(ccc(c35)C2=O)C(=O)N(c2ccc(C(C)=O)cc2)C4=O)cc1 | 17.8%
Cc1ccccc1OCC(=O)O/N=C(\N)Cc1cccs1 | 5.4%
CCOC(=O)Cc1nnc(Nc2cc(C)ccc2C)c2ccccc12 | 1.9%
COC(=O)c1sc(NC(=O)c2c(-c3c(Cl)cccc3Cl)noc2C)c(C#N)c1C | 3.1%
O=c1c2c3c(sc2nc(SCc2ccccc2Cl)n1-c1ccccc1)CCC3 | 5.4%

Compound | displacement
COc1cc(C=Nc2ccc(Nc3ccccc3)cc2)cc(Br)c1O | 18.4%
O=C(/C=C/c1ccc(-c2cccc(C(F)(F)F)c2)o1)c1ccc(F)cc1 | -28.8%
Cc1ccc(-c2cc(C(=O)Nc3nccs3)c3ccccc3n2)o1 | 9.4%
Cc1ccc(C(=O)N/N=C/c2ccc3c(c2)OCO3)cc1 | 9.5%
N/C(=N\OC(=O)c1ccc([N+](=O)[O-])cc1)c1ccccc1Cl | -5.9%
COc1cc(NS(=O)(=O)c2ccc(NC(=O)c3ccc4ccccc4c3)cc2)nc(OC)n1 | 9.2%
CCOC(=O)c1ccc(-n2c(C)cc(/C=C3\NC(=S)NC3=O)c2C)cc1 | 13.6%
O=C(NC(=S)Nc1ccc2oc(-c3ccc(F)cc3)nc2c1)c1ccc(Cl)cc1 | 19.1%
CS(=O)(=O)N1CCN(S(C)(=O)=O)C(OCc2ccccc2)C1OCc1ccccc1 (stereo unspecified) | 4.8%
Cc1ccc2oc(-c3cc(NC(=O)c4cccnc4)ccc3O)nc2c1 | 0.9%
FC(F)(F)c1cccc(-c2ccc(C(=S)N3CCOCC3)o2)c1 | 12.5%
COc1cccc(/C=C2\SC(=Nc3cccc(Cl)c3C)NC2=O)c1 | -15.1%
COC(=O)c1ccccc1NC(=O)CN(c1ccc(Cl)cc1)S(C)(=O)=O | -6.4%
Cc1ccc(NC(=O)CSc2nsc(SCC(=O)Nc3ccc(C)cc3)c2C#N)cc1 | 38.6%
O=C(N(c1cccc2ccccc12)C1C=CS(=O)(=O)C1)C(F)(F)F (stereo unspecified) | 66%
CCN(CC)CCN1C(=O)C(O)=C(C(=O)/C=C/c2ccccc2)C1c1ccccc1F (stereo unspecified) | -8.5%
Cc1ccc(C2CC(C(F)(F)F)n3nc(C(=O)Nc4ccc(OC(F)(F)F)cc4)cc3N2)cc1 (stereo unspecified) | -11%
CCOc1ccccc1NC(=O)CN(c1ccc(C)cc1)S(C)(=O)=O | 1.8%
COc1ccccc1N=Nc1c(O)[nH]c(=O)[nH]c1=O | -1%
CCOc1cc(/C=C2/SC(=S)N(C)C2=O)ccc1OCCOc1ccc(C)c(C)c1 | 9.3%
O=C(COc1ccc(Cl)cc1)Nc1ncc(Cc2cccc3ccccc23)s1 | 4%
CC(=O)Nc1ccc(Nc2nc(-c3ccc(Cl)c(Cl)c3)cs2)cc1 | 12.6%

Compound | displacement
COC(=O)c1cc(C(=O)NCc2ccccc2OC)cc([N+](=O)[O-])c1 | 8.2%
COc1ccccc1/C=C1\SC(=S)N(C(CCSC)C(=O)O)C1=O (stereo unspecified) | 9.7%
COc1ccc(C2Nc3ccccc3C(=O)N2Cc2ccccc2)cc1CN1C(=O)c2ccccc2C1=O (stereo unspecified) | 0.9%
O=C(Nc1ccc2c(c1)OCCO2)c1ccccc1Br | 5.5%
COc1ccc(/C=C(\NC(=O)c2ccccc2)C(=O)NCCc2c[nH]c3ccccc23)cc1 | -4.6%
O=C(Nc1ccccc1[N+](=O)[O-])c1cccc(N2C(=O)CCC2=O)c1 | 11.7%
COc1ccc(CNc2cccc(C)c2)cc1 | 12.6%
C=CCOc1ccc2c(C)c(CC)c(=O)oc2c1 | 16.3%
CC(=O)c1cccc(NC(=O)Nc2cccc3ccccc23)c1 | 13.2%
COc1ccc(N2C(=O)/C(=C/c3cc(Br)cc(OC)c3O)SC2=S)cc1 | -38.7%
Cc1ccccc1C(=O)NNC(=O)C(=O)NCCO | -10%
O=C(CN(c1ccccc1)S(=O)(=O)c1ccccc1[N+](=O)[O-])Nc1cc(Cl)cc(Cl)c1 | -9.8%
Cc1ccc(SC(CC(=O)O)c2ccccc2)cc1 (stereo unspecified) | -1.4%
O=C(Nc1ccccc1I)c1ccccc1C(F)(F)F | 2.9%
CS(=O)(=O)N(CC(=O)Nc1ccccc1Cl)c1cccc(C(F)(F)F)c1 | 10.2%
O=C1NC(=O)C(=Cc2ccc(O)c(Cl)c2)C(=O)N1 | 4.6%
CCOc1cc(OCC)cc(C(=O)Nc2ccc(-c3nc4ccc(C)cc4o3)cc2)c1 | -16.6%
CN(C)c1ccc(/C=N/NC(=O)NC23CC4CC(CC(C4)C2)C3)cc1 | 3.6%
CCOC(=O)c1sc(NC(=O)c2ccc(S(=O)(=O)N3CCCC3)cc2)c(C(=O)OCC)c1C | 0.6%
Cc1cnn(-c2nc(-c3ccccc3)cc(-c3ccc(F)cc3)n2)c1 | -5.8%
COc1ccccc1C=C1C(=O)N(C)C(=O)N(C)C1=O | -4.2%
C(=N\Nc1nnc(-c2ccccc2)c(-c2ccccc2)n1)/c1cccnc1 | 1.7%

Compound | displacement
CCOCCOC(=O)C1=C(C)NC2=C(C(=O)CCC2)C1c1coc2ccc(C)cc2c1=O (stereo unspecified) | -3%
COc1ccc(C2CC(C(F)(F)F)n3nc(C(=O)Nc4ccccc4SC)c(Cl)c3N2)cc1 (stereo unspecified) | 0.5%
COC(=O)c1ccc(NC(=O)COc2ccc(C)cc2C)cc1 | 11.2%
COc1cc(/C=C2/SC(=S)N(C)C2=O)ccc1OC(=O)c1ccccc1Cl | 11.8%
CCN(C(=O)c1cc(OC)c(OC)cc1[N+](=O)[O-])c1ccccc1 | 16.6%
O=C(N/N=C/c1ccco1)c1cc(-c2cccc([N+](=O)[O-])c2)n[nH]1 | -11.9%
COc1ccc(N2C(=O)C(Cl)=C(Nc3ccc(OC)cc3OC)C2=O)cc1 | 15.4%
Cc1nn(CC(=O)N2CCCCC2)c(=O)c2ccccc12 | 5.4%
Cc1ccc(S(=O)(=O)N2CCC(C(=O)O)CC2)cc1 | 15.4%
Oc1ccc(/C=N/N=C/c2ccc(O)c(O)c2)cc1O | -6.7%
Cc1ccc(C2=NN3C(C2)c2ccccc2OC3c2ccc(O)cc2)cc1 (stereo unspecified) | 4.2%
O=[N+]([O-])c1cccc(-c2noc(-c3ccccc3Cl)n2)c1 | 22.6%
O=C1CC(NCc2ccncc2)C(=O)N1c1ccc(I)cc1 (stereo unspecified) | -12%
CSc1nc(SC)c2c3c(sc2n1)COC(C)(C)C3 | 38%
COc1ccc(CN2CCN(S(C)(=O)=O)CC2)cc1OCc1ccccc1 | 0.9%
O=C(c1ccco1)N1CCN(Cc2ccccc2Cl)CC1 | -0.7%
CCN(Cc1ccccc1)C(=O)c1ccc([N+](=O)[O-])cc1 | 11.6%
Cc1cc(=O)oc2c1ccc1oc(/C(=N\O)c3ccc(Cl)cc3)c(C)c12 | 15.2%
CCOC(=O)c1c(NC(=O)c2ccc(OC)cc2OC)sc2c1CCCCC2 | -5.3%
CC(=O)c1ccc(NC(=O)CSc2nc(C)cc(=O)[nH]2)cc1 | 9.8%
C=CCn1c(CCN2C(=O)c3cccc4cccc(c34)C2=O)n[nH]c1=S | -8%
CCOc1ccc(Nc2nc(-c3sc(NC(=O)CC)nc3C)cs2)cc1 | 8.7%

Compound | displacement
Cc1ccc(OCCOc2ccc(Cl)cc2/C=N/n2cnnc2)cc1 | -3.6%
N#C/C(=C/c1ccc(I)o1)C(=O)N1CCOCC1 | -0.4%
O=C(NCCCN1CCOCC1)/C(=C/c1cccc(Oc2ccccc2)c1)NC(=O)c1ccccc1 | 12.2%
Cc1ccc(Cl)cc1NC(=O)c1cccnc1 | 7.9%
COc1cc([N+](=O)[O-])ccc1NC(=O)c1cc(-c2ccccc2)nc2ccccc12 | 2.7%
C/C(CC(=O)NC12CC3CC(CC(C3)C1)C2)=N\NC(=O)c1ccccc1I | -6.8%
Cc1ccc(Cc2cnc(NC(=O)/C=C/c3ccc(C)o3)s2)cc1 | 17.1%
CC1=C(C(=O)OCCc2ccccc2)C(c2ccccc2Br)CC(=O)N1 (stereo unspecified) | -13.6%
Cc1ccc(N2C(=O)c3cccnc3C2=O)cc1C | 3.9%
CCOc1ccc(NC(=O)CN(c2ccc(OC)cc2OC)S(=O)(=O)c2ccc(C)cc2)cc1 | -0.7%
O=C(NCc1ccccc1Cl)c1cccc(I)c1 | 11.7%
Cc1c(-c2ccc(Cl)cc2)nc2ccccc2c1C(=O)Nc1ccc(F)cc1F | -9.1%
COC(=O)CN(c1ccc(C)c(C)c1)S(C)(=O)=O | 9.5%
Cc1cccc(N2C(=O)NC(=O)/C(=C\c3ccc(O)c(Cl)c3)C2=O)c1 | 1.9%
COC(=O)C1=C(C(=O)OC)SC(=C2C(=S)C(C)(C)N(C(=O)c3cccc(C)c3)c3cc(OC)ccc32)S1 | -7.2%
COc1ccccc1CNS(=O)(=O)c1ccc(C)c([N+](=O)[O-])c1 | -5.3%
CCOC(=O)c1c(C)nc(-c2ccccc2)nc1NC(=O)CC | -23.9%
O=C(O)CC(CC(=O)O)c1ccccc1[N+](=O)[O-] | -17.9%

Reference: PubChem BioAssay AID1240 (Sanford-Burnham Center for Chemical Genomics, 2008)
